B1: MS2 coat protein; the commonest letter at each place (parent)
chain: MASNFTQFVLVDNGGTGDVTVAPSNFANGVAEWISSNSRSQAYKVTCSVRQSSAQNRKYTIKVEVPKVATQTVGGVELPVAAWRSYLNMELTIPIFATNSDCELIVKAMQGLLKDGNPIPSAIAANSGIY

Variants of: B1
Assay: apparent fitness score (VLP assembly selection enrichment vs plasmid library) (log10 ratio); higher = better expression / assembly into well-formed VLPs
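Further: counts from Illumina MiSeq reads, cDNA of packaged RNA versus plasmid DNA taken before selection, each replicate independent from library construction onward, expression induced with 0.1% arabinose.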

| Variant | apparent fitness score (log10) |
| --- | --- |
| MASNFTQFVLVDNGGTGDVTVAPSNFANGVAEWISSNSRSQAYKVTCSVRQSSAQNRKYTIKVEVPKVATQTVGGVELPVAAWRSYLNMELTIPIFATNSDCELIVWAMQGLLKDGNPIPSAIAANSGIY [K107W] | -0.983 |
| MASNFTQFVLVDNGGTGDVTVAPSNFANGVAEWISSNSRSQAYKVTCSVRQSSAQNRKYTIKVEVPKVATQTVGGVELPVAAWRSYLNMELTIPIFATNSDCELIVPAMQGLLKDGNPIPSAIAANSGIY [K107P] | < -4 |
| MASNFTQFVLVDNGGTGDVTVAPSNFANGVAEWISSNSRSQAYKVTCSVRQSSAQNRKYTIKVEVPKVATQTVGGVELPVAAWRSYLNMELTIPIFATNSDCELIVYAMQGLLKDGNPIPSAIAANSGIY [K107Y] | -0.381 |
| MASNFTQFVLVDNGGTGDVTVAPSNFANGVAEWISSNSRSQAYKVTCSVRQSSAQNRKYTIKVEVPKVATQTVGGVELPVAAWRSYLNMELTIPIFATNSDCELIVVAMQGLLKDGNPIPSAIAANSGIY [K107V] | -0.823 |
| MASNFTQFVLVDNGGTGDVTVAPSNFANGVAEWISSNSRSQAYKVTCSVRQSSAQNRKYTIKVEVPKVATQTVGGVELPVAAWRSYLNMELTIPIFATNSDCELIVRAMQGLLKDGNPIPSAIAANSGIY [K107R] | 0.625 |
| MASNFTQFVLVDNGGTGDVTVAPSNFANGVAEWISSNSRSQAYKVTCSVRQSSAQNRKYTIKVEVPKVATQTVGGVELPVAAWRSYLNMELTIPIFATNSDCELIVTAMQGLLKDGNPIPSAIAANSGIY [K107T] | < -4 |
| MASNFTQFVLVDNGGTGDVTVAPSNFANGVAEWISSNSRSQAYKVTCSVRQSSAQNRKYTIKVEVPKVATQTVGGVELPVAAWRSYLNMELTIPIFATNSDCELIVSAMQGLLKDGNPIPSAIAANSGIY [K107S] | -1.06 |
| MASNFTQFVLVDNGGTGDVTVAPSNFANGVAEWISSNSRSQAYKVTCSVRQSSAQNRKYTIKVEVPKVATQTVGGVELPVAAWRSYLNMELTIPIFATNSDCELIVKANQGLLKDGNPIPSAIAANSGIY [M109N] | -1.26 |
| MASNFTQFVLVDNGGTGDVTVAPSNFANGVAEWISSNSRSQAYKVTCSVRQSSAQNRKYTIKVEVPKVATQTVGGVELPVAAWRSYLNMELTIPIFATNSDCELIVKAPQGLLKDGNPIPSAIAANSGIY [M109P] | -1.26 |
| MASNFTQFVLVDNGGTGDVTVAPSNFANGVAEWISSNSRSQAYKVTCSVRQSSAQNRKYTIKVEVPKVATQTVGGVELPVAAWRSYLNMELTIPIFATNSDCELIVKARQGLLKDGNPIPSAIAANSGIY [M109R] | -1.09 |
| MASNFTQFVLVDNGGTGDVTVAPSNFANGVAEWISSNSRSQAYKVTCSVRQSSAQNRKYTIKVEVPKVATQTVGGVELPVAAWRSYLNMELTIPIFATNSDCELIVKAWQGLLKDGNPIPSAIAANSGIY [M109W] | < -4 |
| MASNFTQFVLVDNGGTGDVTVAPSNFANGVAEWISSNSRSQAYKVTCSVRQSSAQNRKYTIKVEVPKVATQTVGGVELPVAAWRSYLNMELTIPIFATNSDCELIVKATQGLLKDGNPIPSAIAANSGIY [M109T] | -0.121 |
| MASNFTQFVLVDNGGTGDVTVAPSNFANGVAEWISSNSRSQAYKVTCSVRQSSAQNRKYTIKVEVPKVATQTVGGVELPVAAWRSYLNMELTIPIFATNSDCELIVKALQGLLKDGNPIPSAIAANSGIY [M109L] | 0.663 |
| MASNFTQFVLVDNGGTGDVTVAPSNFANGVAEWISSNSRSQAYKVTCSVRQSSAQNRKYTIKVEVPKVATQTVGGVELPVAAWRSYLNMELTIPIFATNSDCELIVKAQQGLLKDGNPIPSAIAANSGIY [M109Q] | -1.29 |
| MASNFTQFVLVDNGGTGDVTVAPSNFANGVAEWISSNSRSQAYKVTCSVRQSSAQNRKYTIKVEVPKVATQTVGGVELPVAAWRSYLNMELTIPIFATNSDCELIVKAGQGLLKDGNPIPSAIAANSGIY [M109G] | -1.06 |
| MASNFTQFVLVDNGGTGDVTVAPSNFANGVAEWISSNSRSQAYKVTCSVRQSSAQNRKYTIKVEVPKVATQTVGGVELPVAAWRSYLNMELTIPIFATNSDCELIVKAKQGLLKDGNPIPSAIAANSGIY [M109K] | -0.71 |
| MASNFTQFVLVDNGGTGDVTVAPSNFANGVAEWISSNSRSQAYKVTCSVRQSSAQNRKYTIKVEVPKVATQTVGGVELPVAAWRSYLNMELTIPIFATNSDCELIVKAHQGLLKDGNPIPSAIAANSGIY [M109H] | < -4 |
| MASNFTQFVLVDNGGTGDVTVAPSNFANGVAEWISSNSRSQAYKVTCSVRQSSAQNRKYTIKVEVPKVATQTVGGVELPVAAWRSYLNMELTIPIFATNSDCELIVKADQGLLKDGNPIPSAIAANSGIY [M109D] | -1.19 |
| MASNFTQFVLVDNGGTGDVTVAPSNFANGVAEWISSNSRSQAYKVTCSVRQSSAQNRKYTIKVEVPKVATQTVGGVELPVAAWRSYLNMELTIPIFATNSDCELIVKAAQGLLKDGNPIPSAIAANSGIY [M109A] | 0.834 |
| MASNFTQFVLVDNGGTGDVTVAPSNFANGVAEWISSNSRSQAYKVTCSVRQSSAQNRKYTIKVEVPKVATQTVGGVELPVAAWRSYLNMELTIPIFATNSDCELIVKASQGLLKDGNPIPSAIAANSGIY [M109S] | -0.921 |
| MASNFTQFVLVDNGGTGDVTVAPSNFANGVAEWISSNSRSQAYKVTCSVRQSSAQNRKYTIKVEVPKVATQTVGGVELPVAAWRSYLNMELTIPIFATNSDCELIVKAEQGLLKDGNPIPSAIAANSGIY [M109E] | -1.48 |
| MASNFTQFVLVDNGGTGDVTVAPSNFANGVAEWISSNSRSQAYKVTCSVRQSSAQNRKYTIKVEVPKVATQTVGGVELPVAAWRSYLNMELTIPIFATNSDCELIVKAIQGLLKDGNPIPSAIAANSGIY [M109I] | 0.795 |

| Variant | apparent fitness score (log10) |
| --- | --- |
| MASNFTQFVLVDNGGTGDVTVAPSNFANGVAEWISSNSRSQAYKVTCSVRQSSAQNRKYTIKVEVPKVATQTVGGVELPVAAWRSYLNMELTIPIFATNSDCELIVKAFQGLLKDGNPIPSAIAANSGIY [M109F] | -0.868 |
| MASNFTQFVLVDNGGTGDVTVAPSNFANGVAEWISSNSRSQAYKVTCSVRQSSAQNRKYTIKVEVPKVATQTVGGVELPVAAWRSYLNMELTIPIFATNSDCELIVKAVQGLLKDGNPIPSAIAANSGIY [M109V] | -0.494 |
| MASNFTQFVLVDNGGTGDVTVAPSNFANGVAEWISSNSRSQAYKVTCSVRQSSAQNRKYTIKVEVPKVATQTVGGVELPVAAWRSYLNMELTIPIFATNSDCELIVKACQGLLKDGNPIPSAIAANSGIY [M109C] | 0.81 |
| MASNFTQFVLVDNGGTGDVTVAPSNFANGVAEWISSNSRSQAYKVTCSVRQSSAQNRKYTIKVEVPKVATQTVGGVELPVAAWRSYLNMELTIPIFATNSDCELIVKYMQGLLKDGNPIPSAIAANSGIY [A108Y] | -0.173 |
| MASNFTQFVLVDNGGTGDVTVAPSNFANGVAEWISSNSRSQAYKVTCSVRQSSAQNRKYTIKVEVPKVATQTVGGVELPVAAWRSYLNMELTIPIFATNSDCELIVKKMQGLLKDGNPIPSAIAANSGIY [A108K] | -1.03 |
| MASNFTQFVLVDNGGTGDVTVAPSNFANGVAEWISSNSRSQAYKVTCSVRQSSAQNRKYTIKVEVPKVATQTVGGVELPVAAWRSYLNMELTIPIFATNSDCELIVKWMQGLLKDGNPIPSAIAANSGIY [A108W] | < -4 |
| MASNFTQFVLVDNGGTGDVTVAPSNFANGVAEWISSNSRSQAYKVTCSVRQSSAQNRKYTIKVEVPKVATQTVGGVELPVAAWRSYLNMELTIPIFATNSDCELIVKVMQGLLKDGNPIPSAIAANSGIY [A108V] | -0.267 |
| MASNFTQFVLVDNGGTGDVTVAPSNFANGVAEWISSNSRSQAYKVTCSVRQSSAQNRKYTIKVEVPKVATQTVGGVELPVAAWRSYLNMELTIPIFATNSDCELIVKRMQGLLKDGNPIPSAIAANSGIY [A108R] | -0.506 |
| MASNFTQFVLVDNGGTGDVTVAPSNFANGVAEWISSNSRSQAYKVTCSVRQSSAQNRKYTIKVEVPKVATQTVGGVELPVAAWRSYLNMELTIPIFATNSDCELIVKNMQGLLKDGNPIPSAIAANSGIY [A108N] | < -4 |
| MASNFTQFVLVDNGGTGDVTVAPSNFANGVAEWISSNSRSQAYKVTCSVRQSSAQNRKYTIKVEVPKVATQTVGGVELPVAAWRSYLNMELTIPIFATNSDCELIVKEMQGLLKDGNPIPSAIAANSGIY [A108E] | -1.56 |
| MASNFTQFVLVDNGGTGDVTVAPSNFANGVAEWISSNSRSQAYKVTCSVRQSSAQNRKYTIKVEVPKVATQTVGGVELPVAAWRSYLNMELTIPIFATNSDCELIVKHMQGLLKDGNPIPSAIAANSGIY [A108H] | < -4 |
| MASNFTQFVLVDNGGTGDVTVAPSNFANGVAEWISSNSRSQAYKVTCSVRQSSAQNRKYTIKVEVPKVATQTVGGVELPVAAWRSYLNMELTIPIFATNSDCELIVKLMQGLLKDGNPIPSAIAANSGIY [A108L] | < -4 |
| MASNFTQFVLVDNGGTGDVTVAPSNFANGVAEWISSNSRSQAYKVTCSVRQSSAQNRKYTIKVEVPKVATQTVGGVELPVAAWRSYLNMELTIPIFATNSDCELIVKGMQGLLKDGNPIPSAIAANSGIY [A108G] | -0.635 |
| MASNFTQFVLVDNGGTGDVTVAPSNFANGVAEWISSNSRSQAYKVTCSVRQSSAQNRKYTIKVEVPKVATQTVGGVELPVAAWRSYLNMELTIPIFATNSDCELIVKDMQGLLKDGNPIPSAIAANSGIY [A108D] | -0.662 |
| MASNFTQFVLVDNGGTGDVTVAPSNFANGVAEWISSNSRSQAYKVTCSVRQSSAQNRKYTIKVEVPKVATQTVGGVELPVAAWRSYLNMELTIPIFATNSDCELIVKQMQGLLKDGNPIPSAIAANSGIY [A108Q] | < -4 |
| MASNFTQFVLVDNGGTGDVTVAPSNFANGVAEWISSNSRSQAYKVTCSVRQSSAQNRKYTIKVEVPKVATQTVGGVELPVAAWRSYLNMELTIPIFATNSDCELIVKMMQGLLKDGNPIPSAIAANSGIY [A108M] | -1.03 |
| MASNFTQFVLVDNGGTGDVTVAPSNFANGVAEWISSNSRSQAYKVTCSVRQSSAQNRKYTIKVEVPKVATQTVGGVELPVAAWRSYLNMELTIPIFATNSDCELIVKSMQGLLKDGNPIPSAIAANSGIY [A108S] | 0.712 |
| MASNFTQFVLVDNGGTGDVTVAPSNFANGVAEWISSNSRSQAYKVTCSVRQSSAQNRKYTIKVEVPKVATQTVGGVELPVAAWRSYLNMELTIPIFATNSDCELIVKIMQGLLKDGNPIPSAIAANSGIY [A108I] | -0.768 |
| MASNFTQFVLVDNGGTGDVTVAPSNFANGVAEWISSNSRSQAYKVTCSVRQSSAQNRKYTIKVEVPKVATQTVGGVELPVAAWRSYLNMELTIPIFATNSDCELIVKPMQGLLKDGNPIPSAIAANSGIY [A108P] | -0.654 |
| MASNFTQFVLVDNGGTGDVTVAPSNFANGVAEWISSNSRSQAYKVTCSVRQSSAQNRKYTIKVEVPKVATQTVGGVELPVAAWRSYLNMELTIPIFATNSDCELIVKFMQGLLKDGNPIPSAIAANSGIY [A108F] | < -4 |
| MASNFTQFVLVDNGGTGDVTVAPSNFANGVAEWISSNSRSQAYKVTCSVRQSSAQNRKYTIKVEVPKVATQTVGGVELPVAAWRSYLNMELTIPIFATNSDCELIVKTMQGLLKDGNPIPSAIAANSGIY [A108T] | -0.491 |
| MASNFTQFVLVDNGGTGDVTVAPSNFANGVAEWISSNSRSQAYKVTCSVRQSSAQNRKYTIKVEVPKVATQTVGGVELPVAAWRSYLNMELTIPIFATNSDCELIVKCMQGLLKDGNPIPSAIAANSGIY [A108C] | -0.227 |
